# Data taken from the supplement of paper PMC4604168 (melanoma cell lines).
# Some of the results follow. Many values rest on one well or one pass, so single values are uncertain.
# How the values were obtained:
# Experiment in all cases: cell count relative to DMSO control; melanoma cells; higher = more viable cells
# Conditions in all cases: library dose: low library concentration; 72 h
# [1] = tested on: WM115
# [2] = tested on: WM1716
# [3] = tested on: WM1745
# [4] = tested on: WM3526
# [5] = tested on: WM3619
# [6] = tested on: WM451Lu
# 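Note: cell number obtained by counting DAPI-stained nuclei in high-throughput microscope images with image analysis software, screen run in 1,536-well plates.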
Structure (SMILES),cell count [1] [%],cell count [2] [%],cell count [3] [%],cell count [4] [%],cell count [5] [%],cell count [6] [%]
"Cc1ccc(Nc2nccc(N(C)c3ccc4c(C)n(C)nc4c3)n2)cc1S(N)(=O)=O [Pazopanib] + O=C(O)c1ccc(-c2c[nH]c3ncc(-c4ccccc4)cc23)cc1C1CCCC1 [GSK650394] (first compound 0.4 µM, partner dose 0.16 µM)",106,97.7,111,83.7,109,89.8
"Cc1ccc(Nc2nccc(N(C)c3ccc4c(C)n(C)nc4c3)n2)cc1S(N)(=O)=O [Pazopanib] + CCc1ccc(CCOc2ccc(CC3SC(=O)NC3=O)cc2)nc1 [pioglitazone] (first compound 0.4 µM, partner dose 2 µM)",95.2,83.2,83.8,87,87.4,96
"O=C(/C=C/c1cccnc1)NCCCCC1CCN(C(=O)c2ccccc2)CC1 + NC1(c2ccc(-c3nc4ccn5c(=O)[nH]nc5c4cc3-c3ccccc3)cc2)CCC1 [MK2206] (first compound 0.01 µM, partner dose 0.4 µM)",76.4,87.6,83.6,79.6,72.2,113
"O=C(/C=C/c1cccnc1)NCCCCC1CCN(C(=O)c2ccccc2)CC1 + COC(=O)c1sccc1S(=O)(=O)Nc1ccc(Nc2ccccc2)cc1OC [GSK0660] (first compound 0.01 µM, partner dose 1 µM)",87.2,94.6,108,85.3,83.7,97.6
"CC1(C)CCC(c2ccc(Cl)cc2)=C(CN2CCN(c3ccc(C(=O)NS(=O)(=O)c4ccc(N[C@H](CCN5CCOCC5)CSc5ccccc5)c(S(=O)(=O)C(F)(F)F)c4)cc3)CC2)C1 + CO[C@@H]1[C@H](N(C)C(=O)c2ccccc2)C[C@H]2O[C@]1(C)n1c3ccccc3c3c4c(c5c6ccccc6n2c5c31)C(=O)NC4 [Midostaurin] (first compound 0.4 µM, partner dose 0.08 µM)",78.2,47.3,12.6,84.2,87.7,68.5
"O=C(/C=C/c1cccnc1)NCCCCC1CCN(C(=O)c2ccccc2)CC1 + Cn1cc(/C=C2\C(=O)Nc3cccnc32)c2ccccc21 [GW441756] (first compound 0.01 µM, partner dose 0.4 µM)",84.8,119,87.2,102,91.8,104
"Cc1ccc(Nc2nccc(N(C)c3ccc4c(C)n(C)nc4c3)n2)cc1S(N)(=O)=O [Pazopanib] + O=C(O)C(=O)Nc1sc2c(c1C(=O)O)CCNC2 [TCS401] (first compound 0.4 µM, partner dose 1.66667 µM)",104,93,82.3,101,93.3,96.1
"Cc1ccc(Nc2nccc(N(C)c3ccc4c(C)n(C)nc4c3)n2)cc1S(N)(=O)=O [Pazopanib] + C[C@@H](Oc1cc(-c2cnn(C3CCNCC3)c2)cnc1N)c1c(Cl)ccc(F)c1Cl [Crizotinib] (first compound 0.4 µM, partner dose 0.2 µM)",96.9,104,84.5,80.5,88.2,89.9
"O=C(/C=C/c1cccnc1)NCCCCC1CCN(C(=O)c2ccccc2)CC1 + Cn1cnc2c(F)c(Nc3ccc(Br)cc3Cl)c(C(=O)NOCCO)cc21 [selumetinib] (first compound 0.01 µM, partner dose 0.015 µM)",108,93.1,91.5,91.9,81.5,98.6
"Cc1ccc(Nc2nccc(N(C)c3ccc4c(C)n(C)nc4c3)n2)cc1S(N)(=O)=O [Pazopanib] + C[C@@H](N)c1ccc(C(=O)Nc2ccnc3[nH]ccc23)cc1 [RKI983] (first compound 0.4 µM, partner dose 0.4 µM)",112,51.1,111,103,104,104
"CC1(C)CCC(c2ccc(Cl)cc2)=C(CN2CCN(c3ccc(C(=O)NS(=O)(=O)c4ccc(N[C@H](CCN5CCOCC5)CSc5ccccc5)c(S(=O)(=O)C(F)(F)F)c4)cc3)CC2)C1 + O=C(Nc1cccc(Cl)c1)Nc1ncc(CCNc2ncnc3ccsc23)s1 [SNS314] (first compound 0.4 µM, partner dose 0.0008 µM)",81.5,78.1,12.2,83.6,74.1,81.5
"Cc1ccc(Nc2nccc(N(C)c3ccc4c(C)n(C)nc4c3)n2)cc1S(N)(=O)=O [Pazopanib] + OCc1c[nH]c2ccccc12 [Indole-3-carbinol] (first compound 0.4 µM, partner dose 0.8 µM)",104,85.3,88.5,96.4,90.2,94.9
"CC1(C)CCC(c2ccc(Cl)cc2)=C(CN2CCN(c3ccc(C(=O)NS(=O)(=O)c4ccc(N[C@H](CCN5CCOCC5)CSc5ccccc5)c(S(=O)(=O)C(F)(F)F)c4)cc3)CC2)C1 + CO[C@H]1C[C@@H]2CC[C@@H](C)[C@@](O)(O2)C(=O)C(=O)N2CCCC[C@H]2C(=O)O[C@H]([C@H](C)C[C@@H]2CC[C@@H](OCCO)[C@H](OC)C2)CC(=O)[C@H](C)/C=C(\C)[C@@H](O)[C@@H](OC)C(=O)[C@H](C)C[C@H](C)/C=C/C=C/C=C/1C [everolimus] (first compound 0.4 µM, partner dose 0.02 µM)",55.3,61,18.6,53.9,42.2,73.3
"CC1(C)CCC(c2ccc(Cl)cc2)=C(CN2CCN(c3ccc(C(=O)NS(=O)(=O)c4ccc(N[C@H](CCN5CCOCC5)CSc5ccccc5)c(S(=O)(=O)C(F)(F)F)c4)cc3)CC2)C1 + Oc1cc(-c2nc(-c3ccccc3)[nH]c2-c2ccncc2)ccc1Cl [L779450] (first compound 0.4 µM, partner dose 0.2 µM)",48.4,72.3,11,72,97.8,97.9
"O=C(/C=C/c1cccnc1)NCCCCC1CCN(C(=O)c2ccccc2)CC1 + CN(c1ncccc1CNc1nc(Nc2ccc3c(c2)CC(=O)N3)ncc1C(F)(F)F)S(C)(=O)=O [PF562271] (first compound 0.01 µM, partner dose 0.08 µM)",82.3,76.4,90.1,87.3,68.9,86
"Cc1ccc(Nc2nccc(N(C)c3ccc4c(C)n(C)nc4c3)n2)cc1S(N)(=O)=O [Pazopanib] + C[C@]1(O)C[C@@H](c2nc(-c3ccc4ccc(-c5ccccc5)nc4c3)c3c(N)nccn32)C1 [OSI906] (first compound 0.4 µM, partner dose 0.4 µM)",96.8,107,72.7,105,88.1,86.8
"Cc1ccc(Nc2nccc(N(C)c3ccc4c(C)n(C)nc4c3)n2)cc1S(N)(=O)=O [Pazopanib] + O=C1NC(=O)/C(=C/c2ccc(-c3ccc(F)cc3O)o2)S1 [AS252424] (first compound 0.4 µM, partner dose 1 µM)",108,76.1,101,97.5,89,121
"CC1(C)CCC(c2ccc(Cl)cc2)=C(CN2CCN(c3ccc(C(=O)NS(=O)(=O)c4ccc(N[C@H](CCN5CCOCC5)CSc5ccccc5)c(S(=O)(=O)C(F)(F)F)c4)cc3)CC2)C1 + COc1cc2ncnc(Nc3ccc(Oc4ccccc4)cc3)c2cc1OC [SrcI1] (first compound 0.4 µM, partner dose 2 µM)",80.3,85.6,27.6,102,102,51.9
"Cc1ccc(Nc2nccc(N(C)c3ccc4c(C)n(C)nc4c3)n2)cc1S(N)(=O)=O [Pazopanib] + COC(=O)c1sccc1S(=O)(=O)Nc1ccc(Nc2ccccc2)cc1OC [GSK0660] (first compound 0.4 µM, partner dose 1 µM)",104,92.7,84.7,88.5,81.4,92.9
"O=C(/C=C/c1cccnc1)NCCCCC1CCN(C(=O)c2ccccc2)CC1 + Cn1c(=O)n(-c2ccc(C(C)(C)C#N)cc2)c2c3cc(-c4cnc5ccccc5c4)ccc3ncc21 [NVP-BEZ235] (first compound 0.01 µM, partner dose 0.004 µM)",93.1,93,85.3,110,93.3,97.9
"Cc1ccc(Nc2nccc(N(C)c3ccc4c(C)n(C)nc4c3)n2)cc1S(N)(=O)=O [Pazopanib] + CCCCCCCCCCCC1=C(O)C(=O)C=C(O)C1=O [Embelin] (first compound 0.4 µM, partner dose 1.2 µM)",94,96.6,101,84.8,91.4,101
"O=C(/C=C/c1cccnc1)NCCCCC1CCN(C(=O)c2ccccc2)CC1 + CC(=O)c1c(C)c2cnc(Nc3ccc(N4CCNCC4)cn3)nc2n(C2CCCC2)c1=O [palbociclib] (first compound 0.01 µM, partner dose 0.04 µM)",89.6,62.5,83.2,61.4,69.2,79.7
"Cc1ccc(Nc2nccc(N(C)c3ccc4c(C)n(C)nc4c3)n2)cc1S(N)(=O)=O [Pazopanib] + CS(=O)(=O)CCNCc1ccc(-c2ccc3ncnc(Nc4ccc(OCc5cccc(F)c5)c(Cl)c4)c3c2)o1 [lapatinib] (first compound 0.4 µM, partner dose 0.8 µM)",104,93.8,93.7,96.1,101,90.6
"Cc1ccc(Nc2nccc(N(C)c3ccc4c(C)n(C)nc4c3)n2)cc1S(N)(=O)=O [Pazopanib] + Cc1nc(Nc2ncc(C(=O)Nc3c(C)cccc3Cl)s2)cc(N2CCN(CCO)CC2)n1 [dasatanib] (first compound 0.4 µM, partner dose 0.004 µM)",82.8,81,69.4,80.7,70.7,75.8
